According to PubChem BioAssay AID588342 (National Center for Advancing Translational Sciences (NCATS), 2011):
Screen size: about 360,000 compounds; about 25,000 (6.9%) were called active. Inconclusive results, whose numbers are uncertain, are shown with a selection of clear calls. Calls come from the whole dose curve; as a rule, active = well fitted inhibition curve with a large enough effect; inconclusive = small, poorly fitted or top-dose-only effect; inactive = flat fitted curve, though single readings scatter. Potencies beside an inconclusive call are fits to weak or partial responses and may not hold up.

target: Luciferin 4-monooxygenase (Photinus pyralis) (UniProt P08659); experiment: qHTS profiling assay for firefly luciferase inhibitor/activator using purifed enzyme and Km concentrations of substrates (counterscreen for miR-21 project); conditions: purified FLuc, luminescence inhibition; series mostly up to 57.5 µM; note: nearly all actives have a fitted effect of over 55% in size
Chain of UniProt P08659 (P08659 whole entry, looked up): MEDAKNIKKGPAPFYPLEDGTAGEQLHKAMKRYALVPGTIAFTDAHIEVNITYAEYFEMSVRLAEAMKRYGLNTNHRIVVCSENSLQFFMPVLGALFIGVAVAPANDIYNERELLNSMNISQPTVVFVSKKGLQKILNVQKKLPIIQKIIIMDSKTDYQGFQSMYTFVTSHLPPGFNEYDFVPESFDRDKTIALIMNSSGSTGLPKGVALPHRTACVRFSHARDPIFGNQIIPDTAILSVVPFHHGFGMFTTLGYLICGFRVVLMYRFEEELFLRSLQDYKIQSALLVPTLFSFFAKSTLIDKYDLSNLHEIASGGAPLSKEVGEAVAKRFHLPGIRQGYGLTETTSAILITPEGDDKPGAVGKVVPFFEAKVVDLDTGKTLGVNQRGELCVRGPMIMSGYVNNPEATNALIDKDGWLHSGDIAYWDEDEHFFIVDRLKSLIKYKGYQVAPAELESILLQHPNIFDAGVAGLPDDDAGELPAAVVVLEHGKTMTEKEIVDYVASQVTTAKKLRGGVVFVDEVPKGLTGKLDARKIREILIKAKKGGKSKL
Method in brief: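 Biochemical qHTS of compounds, final roughly 60 µM downward over six points, against 10 nM purified firefly luciferase using Km concentrations of substrates (10 uM D-luciferin, 10 uM ATP) in Tris acetate pH 7.5 buffer; luminescence output.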
Potency is the fitted concentration of half-maximal effect; tags give direction and shape of the fitted curve.

Structure (SMILES)	Potency
COc1c(F)c(F)c(C(=O)O)c(Nc2ccc(C)cc2C)c1F	inconclusive: 21.3 µM [inhibitor, single point]
O=C(Nc1nccs1)c1ccc(NC(=O)C2CC=CCC2C(=O)O)cc1 (configuration not stated)	active: 16.9 µM
CCc1ccc(Nc2nnc(SCC(=O)NC(=O)c3cccn3C)s2)cc1	inconclusive: 10.7 µM [inhibitor, partial curve]
COc1ccc(C2CC(c3ccccc3)=NN2C(=O)COC(=O)c2ccc(Cl)nc2)cc1 (configuration not stated)	inconclusive: 19 µM [inhibitor, single point]
CC(=O)n1c2ccccc2c2nc(NC(C)C)sc21	inconclusive: 30.1 µM [inhibitor, single point]
Cc1cc(NC(=O)COc2cccc3cccnc23)no1	inconclusive: 26.9 µM [inhibitor, single point]
C/C(=C\C(=O)c1ccncc1)Nc1ccccc1O	inconclusive: 16.9 µM [inhibitor, partial curve]
COc1ccc(C(=O)NCC(=O)N/N=C/C(C)=C/c2ccccc2)cc1OC	active: 16.9 µM
CSCCC(NC(=O)c1ccc(Cl)cc1Cl)C(=O)OCC(N)=O (configuration not stated)	inconclusive: 23.9 µM [inhibitor, single point]
Cc1ccc(C(=O)Nc2ccccc2C(=O)O)cc1S(=O)(=O)Nc1ccccc1	inconclusive: 37.9 µM [inhibitor, single point]
Cc1ccc(Nc2c(F)c(F)c(F)c(F)c2C(=O)O)c(C)c1	inconclusive: 26.9 µM [inhibitor, single point]
O=C(CSCC(=O)N1CCN(c2ccccc2)CC1)Nc1nc(-c2ccc(Cl)s2)cs1	inactive
COc1cc(O)oc1C=Nc1ccc(Oc2ccccc2)cc1	active: 15.1 µM
COc1ccc2cc(-c3nc(Cl)c4c5c(sc4n3)CCCC5)c(=O)oc2c1	inconclusive: 12 µM [inhibitor, partial curve]
Cc1ccc(/C=C2/Sc3ccc(C(=O)NCc4ccccn4)cc3NC2=O)cc1	inconclusive: 1.35 µM [inhibitor, partial curve, poor fit]
COc1ccc(-c2noc(CSc3ccc(C)cc3)n2)cc1	inconclusive: 37.9 µM [inhibitor, single point]
CCC/C(O)=C1\C(=O)CC(c2ccccc2)CC1=NC (configuration not stated)	inactive
CN(C)c1ccc(-c2nc3cnccn3c2Nc2cccc(C(F)(F)F)c2)cc1	inactive
COc1cc(SSc2cc(OC)cc([N+](=O)[O-])c2N)c(N)c([N+](=O)[O-])c1	active: 8.49 µM
Cc1cc(C(=O)NNc2ccc(F)cc2)no1	inactive
Cc1ccc(Nc2nnc(SCC(=O)NC3CCCc4ccccc43)s2)cc1 (configuration not stated)	inconclusive: 8.49 µM [inhibitor, partial curve]
CCOC(=O)c1c(C(=O)OCC)c(C)n(CCc2ccc(OC)c(OC)c2)c1C	inactive
CC1Sc2ccc(C(=O)Nc3ccccc3OC(F)F)cc2NC1=O (configuration not stated)	inconclusive: 26.9 µM [inhibitor, partial curve, poor fit]
COc1ccc(/C=N/Nc2nc3ccccc3o2)cc1O	active: 0.953 µM

Structure (SMILES)	Potency
O=C(O)CN1C(=O)/C(=C/C=C/c2ccccc2)SC1=S	active: 2.69 µM
Cn1c(=O)c2c(nc(NCc3ccco3)n2C/C=C/c2ccccc2)n(C)c1=O	inactive
COC(=O)c1sccc1NC(=O)/C=C/c1ccc(Cl)cc1Cl	inconclusive: 1.69 µM [inhibitor, partial curve, poor fit]
Cc1ccc(Nc2cc(C)c(O)c(C)c2)cc1	inconclusive: 19 µM [inhibitor, single point]
Cc1nn(-c2ccc(F)cc2)c(Cl)c1/C=N/NC(=O)c1ccc(O)cc1	active: 19 µM
Cc1ccc(-n2c(=O)c3sccc3n(CC(=O)NCc3ccco3)c2=O)cc1F	inactive
O=C(CCCOc1ccc(Cl)cc1Cl)NNC(=O)C1CCC1	inconclusive: 37.9 µM [inhibitor, partial curve, poor fit]
Fc1ccccc1-n1ncc2c1ncn1nc(-c3ccccc3Cl)nc21	active: 0.953 µM
COc1ccc(CCNc2nc(-c3ccncc3)cs2)cc1OC	active: 21.3 µM
Cc1ccc(CNC(=O)c2ccc(CSCc3ccccc3Cl)o2)cc1	inconclusive: 15.1 µM [inhibitor, partial curve, poor fit]
CCOc1ccc(OC(=O)c2cn(-c3cccc(OC)c3)c(=O)c3ccccc23)cc1	inactive
Cc1nn(C)c(C(=O)Nc2ccc(S(=O)(=O)NC34CC5CC(CC(C5)C3)C4)cc2)c1Br	inactive
CCOc1ccc2[nH]c3c(NCCO)ncnc3c2c1	inconclusive: 21.3 µM [inhibitor, partial curve, poor fit]
O=c1cc(COc2ccccc2[N+](=O)[O-])nc2sccn12	inactive
Cc1cc(N/N=C/c2ccccc2F)nc(NCc2ccccc2)n1	active: 15.1 µM
Fc1ccccc1OCCSc1ncnc2nc[nH]c12	inconclusive: 26.9 µM [inhibitor, single point]
CCOc1ccc2nc(Nc3nc4ccc(NC(C)=O)cc4s3)sc2c1	inconclusive: 8.49 µM [inhibitor, single point]
Cc1ccc(NC(=O)c2ccc3oc(=O)c(S(=O)(=O)c4ccccc4)cc3c2)cc1C	inconclusive: 3.38 µM [inhibitor, partial curve, poor fit]
CC(C)c1cc(CNC(=O)CCc2nnc(CCCc3ccccc3)o2)on1	inconclusive: 23.9 µM [inhibitor, single point]
COc1ccc(-c2nn3c(-c4ccco4)nnc3s2)cc1OC	inconclusive: 30.1 µM [inhibitor, partial curve, poor fit]
CC(NC(=O)C1CCN(C(=O)c2ccc(-n3ccc4ccccc43)s2)CC1)c1ccccc1 (configuration not stated)	active: 13.5 µM
COC(=O)c1ccc2c(=O)n(CC3CCCO3)c(SCC(=O)Nc3ccccc3OC)nc2c1 (configuration not stated)	active: 6.75 µM
O=C(Nc1ccc2c(c1)OCCO2)c1cnn(-c2ccccc2)n1	active: 4.78 µM
O=C1NC(=S)N(C(=O)c2ccc(F)cc2)/C1=C/c1cccnc1	inconclusive: 37.9 µM [inhibitor, partial curve, poor fit]

Structure (SMILES)	Potency
COc1ccc(C(C)(C)C)cc1NC(=O)Nc1ccc2c(c1)OCO2	inconclusive: 26.9 µM [inhibitor, partial curve, poor fit]
CCOC(=O)CNC(=O)c1ccc(-c2nn(C)c(=O)c3ccccc23)cc1	inactive
NC(=O)C1CCN(C(=O)/C(=C/c2ccco2)NC(=O)c2ccccc2)CC1	inactive
Nc1nc(SCC(=O)N2CCCc3ccccc32)[nH]c(=O)c1-c1ccccc1	inconclusive: 37.9 µM [inhibitor, partial curve, poor fit]
COc1ccc(C(=O)Nn2c(SCC(=O)NC3CCCCC3)nc3ccccc3c2=O)cc1	active: 1.9 µM
COc1ccc(-c2ccc(SCC(=O)N3CCN(c4ccccc4)CC3)nn2)cc1	inconclusive: 2.13 µM [inhibitor, full curve]
CC(=O)c1cccc(NC(=O)Oc2ccccc2)c1	inconclusive: 26.9 µM [inhibitor, single point]
C/C(=N\NC(=O)Cc1ccccc1Cl)c1cccnc1	inconclusive: 37.9 µM [inhibitor, partial curve, poor fit]
O=C(CSc1cn(CCNC(=O)c2ccccc2F)c2ccccc12)Nc1ccccc1F	inconclusive: 15.1 µM [inhibitor, partial curve]
COc1ccc(N2C(S)=C(C#N)C(=O)NC2c2ccc(OC)c(OC)c2)cc1 (configuration not stated)	inconclusive: 37.9 µM [inhibitor, single point]
CCOC(=O)c1c(-c2ccccc2)nc2c(C)cccn12	inconclusive: 23.9 µM [inhibitor, partial curve, poor fit]
O=C(CSc1nc2c(sc3ccccc32)c(=O)n1CCCC(=O)NC1CCCC1)Nc1ccc(F)cc1	inactive
COC(=O)c1cc(=O)nc2sc(-c3ccccc3)nn12	inactive
N#C/C(=C(/O)COC(=O)CCCNC(=O)c1ccc(Cl)cc1)c1nc2ccccc2[nH]1	inconclusive: 19 µM [inhibitor, partial curve]
Cc1onc(-c2c(F)cccc2Cl)c1C(=O)NC(C)c1ccccc1 (configuration not stated)	inactive
O=C(NCCc1cccs1)C1CC(c2c(Cl)cccc2Cl)=NO1 (configuration not stated)	inconclusive: 30.1 µM [inhibitor, partial curve, poor fit]
NC(=O)c1c(NC(=O)c2ccccc2C(=O)O)sc2c1CCCC2	active: 16.9 µM
COc1ccc(CC(=O)Nc2ccc(OC(C)=O)cc2C(=O)O)cc1	inconclusive: 42.6 µM [inhibitor, partial curve, poor fit]
COC(=O)c1cccc(Nc2c(-c3ccc(OC)cc3)nc3nc[nH]n23)c1	inconclusive: 19 µM [inhibitor, partial curve, poor fit]
C/C(CC(=O)Nc1cc(Cl)ccc1C)=N\NC(=O)C(=O)N1CCCC1	inactive
O=C(Nc1ccc(-c2ccc3nncn3n2)cc1)C1CCCC1	active: 19 µM
O=S1(=O)C=C(Sc2nc3ccccc3s2)c2ccccc21	active: 2.69 µM
Cc1ccc(Nc2nnc(SCC(=O)c3c(N)n(C4CC4)c(=O)[nH]c3=O)s2)cc1C	active: 0.757 µM
CC1(CC(=O)N/N=C/c2ccc(OCc3ccc(Cl)cc3Cl)cc2)OCCCO1	inconclusive: 16.9 µM [inhibitor, partial curve]
